Biological target: cynomolgus LAG3 expressed on the cell surface (293T or CHO cells) (cynomolgus monkey)
Test: flow cytometry cell binding on CHO cells expressing cynomolgus LAG3; PE anti-human IgG detection; one site-specific binding with Hill slope fit

Row | Binder | Bmax | Kd
1 | PD-1/LAG3 Bi-specific Construct A: aPD1 1353-G10 scFv_zwB × aLAG3 Fab_zwA (bispecific antibody, human IgG1, kappa) scFv: MEVQLVQSGAEVKKPGASVKVSCKASGYRFPHYGISWVRQAPGQGLEWMGWISAYNGNTNYAQKLQGRVTMTTDTSTNTAYMELRSLRSDDTAVYYCARDVDYGTGSGYWGQGTLVTVSSGGGGSGGGGSGGGGSSYELTQPPSVSVSPGQTARITCSGDALPKQYAYWYQQKPGQAPVMVIYKDTERPSGIPERFSGSSSGTKVTLTISGVQAEDEADYYCQSADNSITYRVFGGGTKVTVLAAGSDQ[no letters for human IgG1 Fc with changes] heavy: MQVQLVESGGGVVQPGRSLRLSCAASGFTFSSYGMHWVRQAPGKGLEWVAVIWYDGSYKYYADSVKGRFTISRDNSKNTLYLQMNSLRAEDTAVYYCAREEAPENWDYALDVWGQGTTVTVSSASTKGPSVFPLAPSSKSTSGGTAALGCLVKDYFPEPVTVSWNSGALTSGVHTFPAVLQSSGLYSLSSVVTVPSSSLGTQTYICNVNHKPSNTKVDKKVEPKSCDKTHTCPPCPAPELLGGPSVFLFPPKPKDTLMISRTPEVTCVVVDVSHEDPEVKFNWYVDGVEVHNAKTKPREEQYNSTYRVVSVLTVLHQDWLNGKEYKCKVSNKALPAPIEKTISKAKGQPREPQVYVYPPSREEMTKNQVSLTCLVKGFYPSDIAVEWESNGQPENNYKTTPPVLDSDGSFALVSKLTVDKSRWQQGNVFSCSVMHEALHNHYTQKSLSLSPGK light: [no letters for about 100 residues][no letters for about 120 residues] | 5070 MFI | 1.2 nM
2 | PD-1/LAG3 Bi-specific Construct B: aPD1 1353-G10 scFvFc zwB R28T/P30D/H31S V262E; aLAG3 1449-G09.2 Fab zwA V262E (bispecific antibody, human IgG1, kappa) scFv: EVQLVQSGAEVKKPGASVKVSCKASGYTFDSYGISWVRQAPGQGLEWMGWISAYNGNTNYAQKLQGRVTMTTDTSTNTAYMELRSLRSDDTAVYYCARDVDYGTGSGYWGQGTLVTVSSGGGGSGGGGSGGGGSSYELTQPPSVSVSPGQTARITCSGDALPKQYAYWYQQKPGQAPVMVIYKDTERPSGIPERFSGSSSGTKVTLTISGVQAEDEADYYCQSADNSITYRVFGGGTKVTVLAAGSDQEPKSSDKTHTCPPCPAPELLGGPSVFLFPPKPKDTLMISRTPEVTCEVVDVSHEDPEVKFNWYVDGVEVHNAKTKPREEQYNSTYRVVSVLTVLHQDWLNGKEYKCKVSNKALPAPIEKTISKAKGQPREPQVYVLPPSREEMTKNQVSLLCLVKGFYPSDIAVEWESNGQPENNYLTWPPVLDSDGSFFLYSKLTVDKSRWQQGNVFSCSVMHEALHNHYTQKSLSLSPGK heavy: QVQLVESGGGVVQPGRSLRLSCAASGFTFSSYGMHWVRQAPGKGLEWVAVIWYDGSYKYYADSVKGRFTISRDNSKNTLYLQMNSLRAEDTAVYYCAREEAPENWDYALDVWGQGTTVTVSSASTKGPSVFPLAPSSKSTSGGTAALGCLVKDYFPEPVTVSWNSGALTSGVHTFPAVLQSSGLYSLSSVVTVPSSSLGTQTYICNVNHKPSNTKVDKKVEPKSCDKTHTCPPCPAPELLGGPSVFLFPPKPKDTLMISRTPEVTCEVVDVSHEDPEVKFNWYVDGVEVHNAKTKPREEQYNSTYRVVSVLTVLHQDWLNGKEYKCKVSNKALPAPIEKTISKAKGQPREPQVYVYPPSREEMTKNQVSLTCLVKGFYPSDIAVEWESNGQPENNYKTTPPVLDSDGSFALVSKLTVDKSRWQQGNVFSCSVMHEALHNHYTQKSLSLSPGK light: [no letters for about 100 residues][no letters for about 120 residues] | 5280 MFI | 1.9 nM
3 | PD-1/LAG3 Bi-specific Construct C: aPD1 1353-G10 Vk1-39LC scFvFc zwB V262E; aLAG3 1449-G09.2 Fab zwA V262E (bispecific antibody, human IgG1, kappa) scFv: EVQLVQSGAEVKKPGASVKVSCKASGYRFPHYGISWVRQAPGQGLEWMGWISAYNGNTNYAQKLQGRVTMTTDTSTNTAYMELRSLRSDDTAVYYCARDVDYGTGSGYWGQGTLVTVSSGGGGSGGGGSGGGGSDIQLTQSPSSLSASVGDRVTITCSGDALPKQYAYWYQQKPGKAPKLLIYKDTERPSGVPSRFSGSSSGTKVTLTISSLQPEDFATYYCQSADNSITYRVFGGGTKVEIKAAGSDQEPKSSDKTHTCPPCPAPELLGGPSVFLFPPKPKDTLMISRTPEVTCEVVDVSHEDPEVKFNWYVDGVEVHNAKTKPREEQYNSTYRVVSVLTVLHQDWLNGKEYKCKVSNKALPAPIEKTISKAKGQPREPQVYVLPPSREEMTKNQVSLLCLVKGFYPSDIAVEWESNGQPENNYLTWPPVLDSDGSFFLYSKLTVDKSRWQQGNVFSCSVMHEALHNHYTQKSLSLSPGK heavy: QVQLVESGGGVVQPGRSLRLSCAASGFTFSSYGMHWVRQAPGKGLEWVAVIWYDGSYKYYADSVKGRFTISRDNSKNTLYLQMNSLRAEDTAVYYCAREEAPENWDYALDVWGQGTTVTVSSASTKGPSVFPLAPSSKSTSGGTAALGCLVKDYFPEPVTVSWNSGALTSGVHTFPAVLQSSGLYSLSSVVTVPSSSLGTQTYICNVNHKPSNTKVDKKVEPKSCDKTHTCPPCPAPELLGGPSVFLFPPKPKDTLMISRTPEVTCEVVDVSHEDPEVKFNWYVDGVEVHNAKTKPREEQYNSTYRVVSVLTVLHQDWLNGKEYKCKVSNKALPAPIEKTISKAKGQPREPQVYVYPPSREEMTKNQVSLTCLVKGFYPSDIAVEWESNGQPENNYKTTPPVLDSDGSFALVSKLTVDKSRWQQGNVFSCSVMHEALHNHYTQKSLSLSPGK light: [no letters for about 100 residues][no letters for about 120 residues] | 4880 MFI | 1.9 nM

Reference: patent publication US20200079850A1
